Laboratory results taken from PubChem BioAssay AID504332 (National Center for Advancing Translational Sciences (NCATS), 2011).
Where “and” joins values, the source holds several entries; their conditions need not be identical. Equal values may be shown once. Hit rate of the full screen: of about 350,000 compounds, about 31,000 (8.9%) were called active. This list was built around the results that the source calls inconclusive (neither active nor inactive); the mix of calls is not that of the screen. Calls come from the whole dose curve; as a rule, active = well fitted inhibition curve with a large enough effect; inconclusive = small, poorly fitted or top-dose-only effect; inactive = no such curve, though single readings can be large or run the other way. A potency beside an inconclusive call is a rough fit, not a confirmed value. Where a structure was tested more than once in an assay, its records may differ in their call.

Target: Histone-lysine N-methyltransferase EHMT2 (Homo sapiens) (UniProt Q96KQ7)
UniProt Q96KQ7, sequence (Q96KQ7 whole entry, looked up): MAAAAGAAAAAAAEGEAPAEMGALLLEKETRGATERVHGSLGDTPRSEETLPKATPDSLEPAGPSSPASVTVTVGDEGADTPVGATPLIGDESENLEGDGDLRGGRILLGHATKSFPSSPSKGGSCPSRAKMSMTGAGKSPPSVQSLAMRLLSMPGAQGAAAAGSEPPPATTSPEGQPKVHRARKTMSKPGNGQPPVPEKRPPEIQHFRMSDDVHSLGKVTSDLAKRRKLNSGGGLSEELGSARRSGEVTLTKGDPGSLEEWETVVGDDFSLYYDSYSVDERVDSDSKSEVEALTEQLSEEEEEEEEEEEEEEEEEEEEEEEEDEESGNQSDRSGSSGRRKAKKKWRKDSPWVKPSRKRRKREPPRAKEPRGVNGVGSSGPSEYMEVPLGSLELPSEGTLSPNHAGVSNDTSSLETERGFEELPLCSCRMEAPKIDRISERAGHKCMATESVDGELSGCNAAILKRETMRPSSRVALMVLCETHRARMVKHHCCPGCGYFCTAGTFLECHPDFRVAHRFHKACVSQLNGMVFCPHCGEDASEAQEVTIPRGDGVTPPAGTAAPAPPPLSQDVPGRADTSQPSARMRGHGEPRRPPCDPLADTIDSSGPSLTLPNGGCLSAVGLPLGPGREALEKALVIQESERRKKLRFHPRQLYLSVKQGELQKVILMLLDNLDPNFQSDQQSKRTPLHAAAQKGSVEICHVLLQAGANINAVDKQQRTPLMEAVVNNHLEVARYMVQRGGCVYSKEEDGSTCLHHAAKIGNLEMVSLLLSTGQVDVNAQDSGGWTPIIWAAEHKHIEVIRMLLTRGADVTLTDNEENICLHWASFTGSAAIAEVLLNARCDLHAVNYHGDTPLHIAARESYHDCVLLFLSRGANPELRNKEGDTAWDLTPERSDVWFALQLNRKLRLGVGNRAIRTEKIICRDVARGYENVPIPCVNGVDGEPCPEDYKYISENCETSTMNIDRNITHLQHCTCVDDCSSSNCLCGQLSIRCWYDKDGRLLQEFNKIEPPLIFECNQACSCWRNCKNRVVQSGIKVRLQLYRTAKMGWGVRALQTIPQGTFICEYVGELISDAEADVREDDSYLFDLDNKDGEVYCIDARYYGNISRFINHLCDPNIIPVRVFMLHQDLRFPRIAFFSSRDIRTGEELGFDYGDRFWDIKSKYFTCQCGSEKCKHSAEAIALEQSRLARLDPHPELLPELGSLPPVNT
Assay: qHTS Assay for Inhibitors of Histone Lysine Methyltransferase G9a; note: nearly all actives have a fitted effect of over 75% in size
Conditions: G9a H3K9 monomethylation, AlphaScreen, 2 h; activity, negative = inhibition: at 59 µM (top of the series) unless noted
In short: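 G9a (20 nM) preincubated 15 min RT with compounds, then 500 nM biotinylated H3K9 peptide and 20 uM SAM added; 2 h RT reaction. Monomethyl-H3K9 product detected by AlphaScreen with anti-H3K9me1 antibody, streptavidin donor and anti-rabbit IgG acceptor beads.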
% is set by controls: 0 for no effect and ±100 for the full control effect; potency is the fitted concentration of half-maximal effect; tags give direction and shape of the fitted curve.

SMILES	Potency	activity, negative = inhibition
O=C(Nc1ccccc1N1CCCC1)C1CCN(S(=O)(=O)c2ccccc2)CC1	active: 50.1 µM	
COc1ccc(-c2nc3ccc(N4CCCC4)cc3c(=O)[nH]2)cc1OC	inconclusive: 35.5 µM [inhibitor, partial curve, poor fit]	
COC(=O)c1ccc2c(=O)[nH]c(CN3c4ccccc4CC3C)nc2c1 (stereo not given)	active: 11.2 µM	
Cc1ccc(NC(=O)NCCc2c(C)nn(C)c2C)cc1Cl		inactive: 10.5%
O=C1CN(C(=S)NC(=O)c2ccc(-c3ccccc3)cc2)CCN1	inconclusive: 31.6 µM [inhibitor, partial curve, poor fit]	
O=S(=O)(Nc1nc2ccccc2nc1Nc1ccc2c(c1)OCCO2)c1cccs1	inconclusive: 89.1 µM [inhibitor, single point]	
CCC(=O)NC1=C(Nc2ccc(N)cc2)C(=O)c2ccccc2C1=O	active: 50.1 µM	
CCC[C@@H](CNC)NC[C@H](Cc1ccccc1)NCCCCc1ccccc1	inconclusive: 89.1 µM [inhibitor, single point]	
CC1(C)CC(N2CCN(Cc3ccccc3)CC2)=CC(=[N+]2CCCCC2)C1	inconclusive: 3.55 µM [inhibitor, single point]	
c1ccc(-c2ccc(OCCN3CCOCC3)cc2)cc1	inconclusive: 79.4 µM [inhibitor, single point]	
O=C(N/N=C/c1cccc([N+](=O)[O-])c1O)c1cccs1	active: 50.1 µM	
Cc1ccc(C(=O)N/C(=C\c2cccs2)C(=O)NC2CCCCC2)cc1	inconclusive: 8.91 µM [inhibitor, partial curve, poor fit]	
CNC(=S)Nc1ccc(OC)c(OC)c1	inconclusive: 39.8 µM [inhibitor, single point]	
COC(=O)c1ccc(COc2cccnc2[N+](=O)[O-])cc1		inactive: -7% [at 102 µM]
Cc1cc(CNC(=O)COc2cc(F)ccc2[N+](=O)[O-])c2ccccc2n1	inconclusive: 89.1 µM [inhibitor, partial curve, poor fit]	
CCN1CCN(c2cc(C)c3cc(NC(=S)N4CCCCC4)ccc3n2)CC1	active: 44.7 µM	
COc1ccc(NC(=O)CN(C)C(=O)c2cc3c(cc2Cl)N2CCCCCC2=NS3(=O)=O)cc1	inconclusive: 8.91 µM [inhibitor, single point]	
Cc1cc(=O)oc2c3c(cc(OCC(=O)NCC(=O)O)c12)OC(C)(C)CC3	inconclusive: 89.1 µM [inhibitor, single point]	
Cc1ccc(S(=O)(=O)N2CCC(C(=O)Nc3ccc(N4CCOCC4)cc3)CC2)cc1C	active: 15.8 µM	
Cc1[nH][nH]c(=O)c1C(c1ccc(-c2ccc(Cl)cc2Cl)o1)c1c(C)[nH][nH]c1=O	active: 7.08 µM	
CC(CCc1ccccc1)NC(=O)C1CCCN(C(=O)c2cc3sccc3n2C)C1 (stereo not given)	inconclusive: 79.4 µM [inhibitor, single point]	
COc1ccc(-n2c(=O)c3ccccc3c3ccccc3c2=O)cc1	active: 10 µM	
Cc1ccc(CNC(=O)c2ccc(Cn3nc(C)c(Cl)c3C)o2)cc1	inconclusive: 50.1 µM [inhibitor, partial curve, poor fit]	
Cc1ccc(OCC(=O)Nc2nnc(SCc3cc(=O)c4ccccc4[nH]3)s2)cc1		inactive: -2.88%

SMILES	Potency	activity, negative = inhibition
O=C(COC(=O)/C=C/c1ccc(F)cc1)NCc1ccco1		inactive: -4.38% [at 102 µM]
CCOc1ccc(CCNC(=O)C2CC(C)=CCC2C(=O)O)cc1OCC (stereo not given)	active: 22.4 µM	
Cc1ccc(S(=O)(=O)N2CCC(C(=O)N[C@@H](C)C(=O)NC3CCCCC3)CC2)cc1	inconclusive: 89.1 µM [inhibitor, single point]	
CCC(=C(c1ccc(OC)cc1)c1ccc(OC)cc1)c1cn(CC(O)CN(CCO)CCO)c2ccccc12 (stereo not given)	active: 39.8 µM	
COc1ccc(-n2c(=O)c3c4c(sc3n(Cc3ccc(F)cc3)c2=O)CCCC4)c(OC)c1	inconclusive: 7.94 µM [inhibitor, partial curve, poor fit]	
C[C@H](CCC(=O)O)[C@H]1CC[C@H]2[C@@H]3CC[C@@H]4C[C@H](O)CC[C@]4(C)[C@H]3CC[C@]12C		inactive: -2.47% [at 12.7 µM] and inactive: 7.95% [at 12.7 µM]
COc1ccc(N2CCN(S(=O)(=O)CCNS(=O)(=O)c3ccccc3)CC2)cc1	active: 14.1 µM	
Oc1ccc(N2CCN(C(c3cccnc3)c3nnnn3Cc3ccccc3)CC2)cc1 (stereo not given)	inconclusive: 3.16 µM [inhibitor, single point]	
CCCCN(C)C(=O)CS(=O)(=O)Cc1nc(-c2cccc(OC)c2)oc1C	inconclusive: 28.2 µM [inhibitor, single point]	
O=C(O)c1ccc(Nc2nc3c(s2)CCCC3)cc1	inconclusive: 25.1 µM [inhibitor, single point]	
C=CCn1c(SCC(=O)NCCCC(=O)OCC)nc2scc(-c3ccco3)c2c1=O	inconclusive: 79.4 µM [inhibitor, single point]	
O=C(CSc1ccccc1)NCC1(N2CCCCC2)CCCCC1	inconclusive: 89.1 µM [inhibitor, partial curve, poor fit]	
CCOC(=O)CC1C(=O)NCCN1Cc1cccc(OC)c1 (stereo not given)	inconclusive: 79.4 µM [inhibitor, single point]	
COC(=O)c1ccccc1NC(=O)NC1CCN(Cc2ccccc2)CC1		inactive: -20.8%
O=C(NN1C(=O)C2C3C=CC(C4CC34)C2C1=O)c1ccc(Cl)cc1 (stereo not given)		inactive: 7.55% [at 102 µM]
COc1ccc(S(=O)(=O)n2nc(OC(=O)c3ccncc3)cc2N)cc1		inactive: -128%
O=C(CC(Nc1ccc(Cl)cc1)C(=O)O)c1ccccc1 (stereo not given)	active: 2.24 µM	
O=C(C1Cc2ccccc2O1)N1CCCCC1 (stereo not given)		inactive: -8.75%
COc1c(C)cccc1C(=O)Nc1cccc2ccc(C)nc12		inactive: 88.6%
COC(=O)Cn1cc(/C=N/NC(=O)COc2cccc3cccnc23)c2ccccc21	inconclusive: 31.6 µM [inhibitor, single point]	
Cc1ccc2cc(C=O)c(N3CCOCC3)nc2c1C	inconclusive: 89.1 µM [inhibitor, single point]	
O=C(O)/C=C/c1cnc[nH]1	active: 12.6 µM	
CCCn1c(SCC(=O)c2c(N)n(C3CC3)c(=O)[nH]c2=O)nnc1-c1ccncc1	inconclusive: 15.8 µM [inhibitor, single point]	
Cc1ccc(/C=N/Nc2cccc(C(=O)O)c2)s1	inconclusive: 39.8 µM [inhibitor, single point]	

SMILES	Potency	activity, negative = inhibition
O=C(CN1CCN(c2ccccc2O)CC1)Nc1ccc2c(c1)OCCCO2	inconclusive: 25.1 µM [inhibitor, single point]	
N#Cc1ccc(/C=C/C(=O)c2ccccc2)cc1	inconclusive: 89.1 µM [inhibitor, single point]	
CC(=O)N1CCN(CC(=O)c2ccc(Br)cc2)CC1	active: 2 µM	
CCOC(=O)c1cccc(NC(=O)CCn2c(-c3ccc(F)cc3)cc(C(=O)OCC)c2C)c1	inconclusive: 28.2 µM [inhibitor, partial curve, poor fit]	
CCOC(=O)C1=C(C)NC2=C(C(=O)CC(C)(C)C2)C1c1ccc(N(C)C)cc1 (stereo not given)	inconclusive: 1.58 µM [inhibitor, full curve, poor fit]	
CC(=O)c1cccc(NC(=O)C2CCN(S(=O)(=O)c3ccc4c(c3)oc(=O)n4C)CC2)c1	inconclusive: 28.2 µM [inhibitor, partial curve, poor fit]	
O=C1OC(NC(=O)c2ccccc2)C(n2cc(CO)nn2)=C1Cl (stereo not given)	inconclusive: 1.58 µM [inhibitor, single point]	
O=[N+]([O-])c1cc(S(=O)(=O)N2CCCCCC2)ccc1Cl	inconclusive: 39.8 µM [inhibitor, partial curve, poor fit]	
COc1cccc(CC(=O)OCC(=O)NC2CCCC2)c1	inconclusive: 1 µM [inhibitor, single point]	
O=C(CSc1ccc(-c2ccccn2)nn1)N1CCCC1	active: 3.55 µM	
CCOC(=O)c1cc2c(=O)n3ccccc3nc2n(Cc2ccco2)c1=NC(=O)c1cccc(OC)c1		inactive: -24% [at 102 µM]
CS(=O)(=O)c1ccc2nc(NC(=O)c3ccc(Cl)nc3)sc2c1	inconclusive: 11.2 µM [inhibitor, partial curve]	
Cc1cccc(NC(=O)N2CC(=O)Nc3sc4c(c3C2c2ccccc2)CCCC4)c1C (stereo not given)	inconclusive: 39.8 µM [inhibitor, partial curve, poor fit]	
Cc1cccc(NC(=S)NNC(=O)c2sccc2C)c1	inconclusive: 11.2 µM [inhibitor, partial curve, poor fit]	
Cc1ccccc1C1CC(=O)Nc2ccc3ccccc3c21 (stereo not given)		inactive: -3.93%
NS(=O)(=O)c1ccc(CCNC(=O)CSc2nc3ccccc3c3nc(CCN4CCCCC4)nn23)cc1	inconclusive: 79.4 µM [inhibitor, partial curve, poor fit]	
COc1ccc(Cn2ccn(Cc3cccc(OC)c3)c(=O)c2=O)cc1		inactive: -3.66%
CC(=O)Nc1nnc(CCS(=O)(=O)c2ccc(Cl)cc2)s1	inconclusive: 89.1 µM [inhibitor, single point]	
O=[N+]([O-])c1cccnc1SCc1ccccc1	active: 44.7 µM	
COc1ccc(C(=O)Nc2ccc(CN3CCOCC3)cc2)cc1Br		inactive: -8.81%
COc1cc2ccccc2cc1C(=O)Nc1ccc(Cc2ccncc2)cc1	inconclusive: 20 µM [inhibitor, partial curve, poor fit]	
Cc1csc(N2CCN(c3cc4nc(-c5ccncc5)[nH]c4cc3Cl)CC2)n1	active: 7.94 µM	
